Laboratory results published in PMC6744581.
Results are given in words; binding and its absence hold for the method and conditions named. In cells and extracts the contact can be indirect. Some binding calls cover weakened binding; strength is not graded here. Where a sequence is shown, tags or fusion partners need not be part of it.

T1: myc-RhoBTB1 (human) (UniProt O94844)
T1 sequence: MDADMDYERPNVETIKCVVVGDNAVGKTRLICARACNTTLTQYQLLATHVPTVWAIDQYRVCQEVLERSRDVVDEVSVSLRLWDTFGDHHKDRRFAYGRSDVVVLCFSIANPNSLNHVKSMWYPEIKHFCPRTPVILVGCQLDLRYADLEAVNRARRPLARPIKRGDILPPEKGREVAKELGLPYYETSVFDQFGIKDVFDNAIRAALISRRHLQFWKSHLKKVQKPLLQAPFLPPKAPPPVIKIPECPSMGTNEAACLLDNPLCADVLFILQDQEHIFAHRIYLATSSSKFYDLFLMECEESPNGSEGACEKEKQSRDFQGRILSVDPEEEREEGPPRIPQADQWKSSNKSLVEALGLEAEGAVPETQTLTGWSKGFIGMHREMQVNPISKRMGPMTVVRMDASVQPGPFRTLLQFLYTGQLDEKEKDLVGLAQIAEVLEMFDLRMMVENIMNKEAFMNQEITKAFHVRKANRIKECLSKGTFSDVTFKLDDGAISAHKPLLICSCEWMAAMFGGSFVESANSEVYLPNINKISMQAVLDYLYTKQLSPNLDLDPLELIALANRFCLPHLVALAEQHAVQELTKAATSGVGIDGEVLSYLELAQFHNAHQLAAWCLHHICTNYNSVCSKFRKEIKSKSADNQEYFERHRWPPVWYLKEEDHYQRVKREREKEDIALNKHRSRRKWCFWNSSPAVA

T2: GFP-RhoBTB1 (human) (UniProt O94844)
T2 sequence: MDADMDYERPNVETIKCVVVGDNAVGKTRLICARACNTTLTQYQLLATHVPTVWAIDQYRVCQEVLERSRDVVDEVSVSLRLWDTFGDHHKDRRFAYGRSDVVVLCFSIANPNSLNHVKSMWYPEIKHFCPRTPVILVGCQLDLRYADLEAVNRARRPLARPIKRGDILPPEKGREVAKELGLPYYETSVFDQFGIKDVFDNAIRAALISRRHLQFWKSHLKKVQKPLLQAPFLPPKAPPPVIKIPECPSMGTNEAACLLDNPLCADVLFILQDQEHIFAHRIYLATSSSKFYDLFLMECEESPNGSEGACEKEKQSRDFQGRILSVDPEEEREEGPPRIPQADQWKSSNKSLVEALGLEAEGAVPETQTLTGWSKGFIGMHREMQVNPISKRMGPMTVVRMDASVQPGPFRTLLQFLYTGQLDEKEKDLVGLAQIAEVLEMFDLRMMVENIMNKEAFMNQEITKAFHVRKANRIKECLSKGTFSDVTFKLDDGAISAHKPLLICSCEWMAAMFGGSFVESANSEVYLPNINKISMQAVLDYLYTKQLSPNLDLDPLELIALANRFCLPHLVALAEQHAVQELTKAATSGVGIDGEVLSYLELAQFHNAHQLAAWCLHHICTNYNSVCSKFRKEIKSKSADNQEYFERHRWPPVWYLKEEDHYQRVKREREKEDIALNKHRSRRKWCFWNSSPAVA


How the values were obtained:
[1] = target: T1, myc-RhoBTB1 (human); experiment: co-IP; COS7 cells co-transfected with myc-RhoBTB1 and GFP-RhoBTB1, lysed after 24 h; anti-myc-agarose beads; blots for myc and GFP
[2] = target: T2, GFP-RhoBTB1 (human); experiment: co-IP; COS7 cells co-transfected, lysed after 24 h in IP lysis buffer (1% Triton X-100, 20 mM Tris pH 8, 130 mM NaCl, 1 mM DTT); GFP fusion held on GFP-trap beads; blots for myc or HA and GFP

Row | binding [1] | binding [2] | Binder
1 | binds |  | GFP-RhoBTB1 (protein, UniProt O94844 1-696) MDADMDYERPNVETIKCVVVGDNAVGKTRLICARACNTTLTQYQLLATHVPTVWAIDQYRVCQEVLERSRDVVDEVSVSLRLWDTFGDHHKDRRFAYGRSDVVVLCFSIANPNSLNHVKSMWYPEIKHFCPRTPVILVGCQLDLRYADLEAVNRARRPLARPIKRGDILPPEKGREVAKELGLPYYETSVFDQFGIKDVFDNAIRAALISRRHLQFWKSHLKKVQKPLLQAPFLPPKAPPPVIKIPECPSMGTNEAACLLDNPLCADVLFILQDQEHIFAHRIYLATSSSKFYDLFLMECEESPNGSEGACEKEKQSRDFQGRILSVDPEEEREEGPPRIPQADQWKSSNKSLVEALGLEAEGAVPETQTLTGWSKGFIGMHREMQVNPISKRMGPMTVVRMDASVQPGPFRTLLQFLYTGQLDEKEKDLVGLAQIAEVLEMFDLRMMVENIMNKEAFMNQEITKAFHVRKANRIKECLSKGTFSDVTFKLDDGAISAHKPLLICSCEWMAAMFGGSFVESANSEVYLPNINKISMQAVLDYLYTKQLSPNLDLDPLELIALANRFCLPHLVALAEQHAVQELTKAATSGVGIDGEVLSYLELAQFHNAHQLAAWCLHHICTNYNSVCSKFRKEIKSKSADNQEYFERHRWPPVWYLKEEDHYQRVKREREKEDIALNKHRSRRKWCFWNSSPAVA
2 |  | binds | myc-ROCK2^1–436 (domain or fragment, UniProt Q28021 1-436) MSRPPPTGKMPGAPEAVSGDGAGASRQRKLEALIRDPRSPINVESLLDGLNPLVLDLDFPALRKNKNIDNFLNRYEKIVKKIRGLQMKAEDYDVVKVIGRGAFGEVQLVRHKASQKVYAMKLLSKFEMIKRSDSAFFWEERDIMAFANSPWVVQLFCAFQDDKYLYMVMEYMPGGDLVNLMSNYDVPEKWAKFYTAEVVLALDAIHSMGLIHRDVKPDNMLLDKHGHLKLADFGTCMKMDETGMVHCDTAVGTPDYISPEVLKSQGGDGYYGRECDWWSVGVFLFEMLVGDTPFYADSLVGTYSKIMDHKNSLCFPEDAEISKHAKNLICAFLTDREVRLGRNGVEEIKQHPFFKNDQWNWDNIRETAAPVVPELSSDIDSSNFDDIEDDKGDVETFPIPKAFVGNQLPFIGFTYYRENLLLSDSPSCKENDSIQS
